# Laboratory results published in PubChem BioAssay AID504339 (National Center for Advancing Translational Sciences (NCATS), 2011).
# Among all 390,000 compounds or so, about 17,000 (4.4%) were called active. The shares of active, inactive and inconclusive entries below differ from those in the screen. Calls come from the whole dose curve; as a rule, active = well fitted inhibition curve with a large enough effect; inconclusive = small, poorly fitted or top-dose-only effect; inactive = no such curve, though single readings can be large or run the other way. A potency beside an inconclusive call is a rough fit, not a confirmed value.
# Biological target: Lysine-specific demethylase 4A (Homo sapiens) (UniProt O75164)
# Test: qHTS Assay for Inhibitors of JMJD2A-Tudor Domain; note: nearly all actives have a fitted effect of over 50% in size
# Settings: AlphaScreen JMJD2A-Tudor / H3K4me3 peptide binding; series mostly up to 114 µM
# Potency is the fitted concentration of half-maximal effect; tags give direction and shape of the fitted curve.
# Chain of UniProt O75164 (O75164 whole entry, looked up, the tested form may be a part): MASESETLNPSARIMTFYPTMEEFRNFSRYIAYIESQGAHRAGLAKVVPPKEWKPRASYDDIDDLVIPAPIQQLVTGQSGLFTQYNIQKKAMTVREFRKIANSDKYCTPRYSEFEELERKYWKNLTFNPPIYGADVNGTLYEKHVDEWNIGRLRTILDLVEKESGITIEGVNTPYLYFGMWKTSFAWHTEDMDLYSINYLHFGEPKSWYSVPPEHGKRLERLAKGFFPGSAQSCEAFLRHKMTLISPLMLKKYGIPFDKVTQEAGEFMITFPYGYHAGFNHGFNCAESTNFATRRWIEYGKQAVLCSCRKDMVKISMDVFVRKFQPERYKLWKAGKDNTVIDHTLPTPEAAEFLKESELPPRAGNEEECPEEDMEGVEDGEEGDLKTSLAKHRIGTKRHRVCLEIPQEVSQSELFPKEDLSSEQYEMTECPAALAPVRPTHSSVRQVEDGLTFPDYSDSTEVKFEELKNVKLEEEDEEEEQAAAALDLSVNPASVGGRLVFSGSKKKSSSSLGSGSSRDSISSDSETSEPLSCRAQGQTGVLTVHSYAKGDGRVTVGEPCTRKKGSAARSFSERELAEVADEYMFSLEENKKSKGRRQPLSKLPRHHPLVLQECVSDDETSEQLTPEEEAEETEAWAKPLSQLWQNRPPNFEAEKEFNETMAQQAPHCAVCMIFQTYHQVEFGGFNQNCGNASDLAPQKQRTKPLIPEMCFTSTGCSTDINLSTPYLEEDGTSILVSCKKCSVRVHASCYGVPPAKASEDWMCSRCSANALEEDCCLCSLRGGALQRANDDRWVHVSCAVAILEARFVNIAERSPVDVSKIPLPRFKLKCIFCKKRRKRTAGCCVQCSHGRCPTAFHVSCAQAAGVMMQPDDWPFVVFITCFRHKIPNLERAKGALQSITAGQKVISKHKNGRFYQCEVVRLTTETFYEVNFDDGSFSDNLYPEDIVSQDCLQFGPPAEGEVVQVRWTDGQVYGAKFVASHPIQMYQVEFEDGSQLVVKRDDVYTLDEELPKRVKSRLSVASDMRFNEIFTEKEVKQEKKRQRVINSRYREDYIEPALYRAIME
row,Compound,Potency
1,COc1ccc(Cc2nnc(SCC(=O)N(C)CC(=O)Nc3ccc(C)cc3)o2)cc1,inactive
2,O=C(NCCc1ccc(Cl)cc1)c1cc(-c2ccccn2)nc2ccccc12,active: 22.4 µM
3,COc1ccc(N2CCN(C(=O)c3c(C)nn(-c4ccc(F)cc4)c3-n3cccc3)CC2)cc1,"inconclusive: 50.1 µM [inhibitor, partial curve]"
4,Cc1ccc(C)n1-c1ccc(C(=O)NN)s1,"inconclusive: 100 µM [inhibitor, partial curve]"
5,CCc1ccccc1NC(=O)N1CC(CC)Oc2ccc(Cl)cc21 (centres undefined),inactive
6,C/C(=N\N(Cc1ccccc1)c1ccccc1)c1cccnc1,"inconclusive: 44.7 µM [inhibitor, partial curve]"
7,N#C/C(=C(\O)c1ccco1)c1ccccn1,"inconclusive: 56.2 µM [inhibitor, partial curve]"
8,CCOc1ccc(-n2c(SCC(=O)Nc3cc(C(=O)O)ccc3Cl)nc3ccccc3c2=O)cc1,"inconclusive: 50.1 µM [inhibitor, partial curve]"
9,CC(C)n1cnc2c(NCc3ccccc3)cc(N[C@H](C)CO)cc21,active: 56.2 µM
10,CCOC(=O)N1CCc2c(sc3c2c(=O)n(CCc2ccccc2)c(=O)n3Cc2ccc(C)cc2C)C1,inactive
11,O=C(NCc1ccccc1)C12CN(Cc3ccccc3)CC1C(c1ccc([N+](=O)[O-])cc1)=NO2 (centres undefined),"inconclusive: 50.1 µM [inhibitor, partial curve]"
12,CCN(CC)S(=O)(=O)c1ccc(O)c(NC(=O)COc2ccc(S(=O)(=O)N3CCOCC3)cc2)c1,"inconclusive: 89.1 µM [inhibitor, partial curve]"
13,COc1cccc(/C=N/n2nnc3c(cnn3-c3ccccc3)c2=O)c1,inactive
14,CCCn1c(CCC(=O)O)ccc1-c1ccc(OC)cc1,"inconclusive: 63.1 µM [inhibitor, partial curve]"
15,Cc1ccc(C)c(OCCOCCN2CC(C)OC(C)C2)c1C (centres undefined),active: 1 µM
16,COc1ccc(C=C2C=C(C(C)(C)C)C(=O)C(C(C)(C)C)=C2)cc1OC,active: 31.6 µM
17,O=C(N/N=C/c1ccc(-c2ccc([N+](=O)[O-])cc2)o1)C(O)c1ccccc1 (centres undefined),inactive
18,CCNC(=O)N(C)C[C@H]1N[C@@](C)(C(=O)OC)[C@H]2C(=O)N(C)C(=O)[C@@H]12,active: 89.1 µM
19,COc1cccc(C2C(C#N)=C(N)SC(c3ccccc3)C2[N+](=O)[O-])c1 (centres undefined),"inconclusive: 63.1 µM [inhibitor, partial curve, poor fit]"
20,CC(=O)Nc1ccc(S(=O)(=O)Nc2ccc(S(=O)(=O)N3CCCCCC3)cc2)cc1,"inconclusive: 100 µM [inhibitor, single point]"
21,Cc1[nH]n(-c2ccccc2)c(=O)c1/C=N/NC(=O)c1cccc(F)c1,active: 79.4 µM
22,CN(C)S(=O)(=O)N1C(=O)c2ccccc2C1=O,inactive
23,CCOc1ccc2oc(C(=O)N(CCOC)c3c(N)n(CC(C)C)c(=O)[nH]c3=O)c(C)c2c1,inactive

row,Compound,Potency
1,Cc1ccc(O)c(CNc2ccc(S(=O)(=O)Nc3nccs3)cc2)c1,inactive
2,CCC(C)(C)NC(=O)C(c1ccc(OC)cc1)N(C(=O)CCC(=O)Nc1cc(C)on1)c1ccc2c(c1)OCO2 (centres undefined),inactive
3,COc1ccccc1N1C(=O)c2cccc3c(C(=O)O)ccc(c23)C1=O,active: 79.4 µM
4,CCOC(=O)c1ccc(N2C(=O)c3n[nH]c(-c4ccco4)c3C2c2cccc(F)c2)cc1 (centres undefined),"inconclusive: 20 µM [inhibitor, full curve]"
5,O=C(Nc1ccc(Cl)cc1)[C@@H]1[C@@H]2C(=O)N(c3ccc4ccccc4c3)C(=O)[C@@H]2[C@H]2C=CC=NN21,active: 63.1 µM
6,CCNc1ccc(S(=O)(=O)N(C)C)cc1NCC(=O)Nc1ccccc1F,inactive
7,CCc1ccc(S(=O)(=O)c2nnn3c2nc(N2CCN(CC)CC2)c2sccc23)cc1,"inconclusive: 50.1 µM [inhibitor, partial curve]"
8,Cc1ccccc1NC(=O)c1cc(N)ccc1N1CCCCC1,"inconclusive: 56.2 µM [inhibitor, partial curve, poor fit]"
9,COc1cccc(C2C(C#N)=C(N)OC3=C2C(=O)CC(c2ccco2)C3)c1OCc1ccc(F)cc1 (centres undefined),"inconclusive: 79.4 µM [inhibitor, partial curve]"
10,Cc1sc(NC(=S)NC(=O)CCc2ccccc2)c(C(N)=O)c1C,inactive
11,CC(NC(=O)COc1ccc([N+](=O)[O-])cc1)c1ccccc1 (centres undefined),"inconclusive: 28.2 µM [inhibitor, single point]"
12,O=C(O)CCCNC(=O)c1cccc(C(=O)NCCCC(=O)O)n1,"inconclusive: 39.8 µM [inhibitor, single point]"
13,CC(C(O)c1cc(=O)c(OCc2ccccc2)co1)[N+](=O)[O-] (centres undefined),inactive
14,Cc1c2n(c3ccccc13)CC/C2=N\O,inactive
15,CC(C)c1ccc(S(=O)(=O)Nc2cc3c(cc2NCc2ccccc2)n(C)c(=O)n3C)cc1,"inconclusive: 11.2 µM [inhibitor, full curve]"
16,Cc1nn(-c2ccc(Cl)cc2)c(N)c1C(O)(CSc1nccn1C)C(F)(F)F (centres undefined),"inconclusive: 79.4 µM [inhibitor, single point]"
17,COc1cc(-c2cn[nH]c2N)cc(OC)c1OC,"inconclusive: 35.5 µM [inhibitor, single point]"
18,O=C(CSc1nc(-c2ccccc2)[nH]c1-c1ccc(F)cc1)NC1CCCC1,"inconclusive: 31.6 µM [inhibitor, partial curve]"
19,COC(=O)CCC(=O)OC1(C)C(=O)C2=CN(CC3CC3)C(c3ccc(OC)cc3)=CC2=C(Br)C1=O (centres undefined),"inconclusive: 79.4 µM [inhibitor, partial curve]"
20,Cc1cc(C)c2c(CN3CCN(Cc4ccccc4)CC3)cc(=O)oc2c1C,"inconclusive: 89.1 µM [inhibitor, single point]"
21,CC(=O)N1c2ccc(S(=O)(=O)NCC3CCC(C(=O)Nc4cccc(F)c4)CC3)cc2CC1C (centres undefined),inactive
22,CCc1cccc2c(C(=O)CN3C(=O)N(C)C4(CCCCC4)C3=O)c[nH]c12,inactive
23,COc1ccc2c(N)c(C(=O)NN)[nH]c2c1,"inconclusive: 70.8 µM [inhibitor, partial curve]"

row,Compound,Potency
1,COc1cccc(C2C(C(=O)OC(C)C)=C(C)N=c3s/c(=C\c4ccc(C(=O)O)cc4)c(=O)n32)c1 (centres undefined),"inconclusive: 22.4 µM [inhibitor, partial curve]"
2,COc1ccc(NC(=O)c2cc(-c3ccncc3)nc3ccccc23)c(OC)c1,"inconclusive: 56.2 µM [inhibitor, partial curve]"
3,Cc1ccccc1NC(=O)CN1C(=O)C2C3CC(C(Br)C3Br)C2C1=O (centres undefined),"inconclusive: 89.1 µM [inhibitor, single point]"
4,COC(=O)CCC(=O)c1oc2ccc(OC)cc2c1N,"inconclusive: 79.4 µM [inhibitor, single point]"
5,CCOC(=O)c1cc(-c2ccc(OC)cc2)n(CCC(=O)NC2CCC(C)CC2)c1C (centres undefined),"inconclusive: 50.1 µM [inhibitor, partial curve]"
6,O=S1(=O)C=C(Sc2nc3cc(Cl)ccc3o2)c2ccccc21,"inconclusive: 35.5 µM [inhibitor, single point]"
7,Cc1cccc(C(=O)NCc2nnc(SCC(=O)Nc3ccccc3F)n2-c2ccccc2)c1,inactive
8,c1ccc2c(C[C@@H]3CNCCN3CCCCC3CCCCC3)cccc2c1,"inconclusive: 56.2 µM [inhibitor, partial curve]"
9,CCNC(=O)N1CCCC(C(=O)c2ccc(C(F)(F)F)cc2)C1 (centres undefined),inactive
10,Cc1c(Nc2nc3ccccc3nc2N2CCN(c3ccccc3)CC2)c(=O)n(-c2ccccc2)n1C,"inconclusive: 56.2 µM [inhibitor, partial curve]"
11,O=C(CCN1CCN(C(c2ccccc2)c2ccccc2)CC1)N/N=C/c1ccc(O)cc1,"inconclusive: 56.2 µM [inhibitor, partial curve]"
12,Cc1ccccc1CN1CCN(C(=O)c2cccc3ccccc23)CC1,active: 25.1 µM
13,CCOC(=O)/C(C(C)=O)=C1\OC(=O)c2ccccc21,"inconclusive: 56.2 µM [inhibitor, partial curve, poor fit]"
14,COc1cc(NC(=S)N2CCN(c3ccccn3)CC2)c(OC)cc1Cl,"inconclusive: 79.4 µM [inhibitor, single point]"
15,Cc1c(C)c2c(OCC(=O)NCC(=O)NCC(=O)O)cc3c(c2oc1=O)CCC(C)(C)O3,active: 20 µM
16,COc1cccc(C2C=C(c3ccc(C)cc3)Nc3c(C(=O)Nc4ccc(F)cc4)cnn32)c1OC (centres undefined),"inconclusive: 20 µM [inhibitor, full curve]"
17,CC1=C(C#N)c2nc(N)c(C#N)c(C)c2/C1=C\c1ccc(-c2ccccc2C(=O)O)o1,active: 35.5 µM
18,CS(=O)(=O)c1ccccc1C(=O)Nc1nc2ccccc2[nH]1,"inconclusive: 15.8 µM [inhibitor, single point]"
19,COc1ccccc1N1CCN(S(=O)(=O)c2c(C)ccc3nsnc23)CC1,"inconclusive: 50.1 µM [inhibitor, partial curve]"
20,CN1CCC(N(C)CC(=O)Nc2cccc(Oc3ccccc3)c2)CC1,active: 6.31 µM
21,COc1ccccc1Nc1nn2c(=O)c3ccc(C(=O)NC4CCCCC4)cc3nc2s1,inactive
22,CC(C)n1cc(CN2CCCC(C(=O)Nc3cccc(-c4cc5ccccc5[nH]4)c3)C2)cn1 (centres undefined),"inconclusive: 44.7 µM [inhibitor, partial curve]"
23,CCOc1cc(CNCCN2CCOCC2)ccc1OCc1ccccc1Cl,inactive
